# Test results reported in the supplement of paper PMC11417369.
# The list shows a part of the results.
# Test system: PfAP2-HC AP2 domain (GST-tagged)
# Assay: gcPBM binding intensity (ln(normalized median fluorescence intensity)); higher = stronger DNA binding
# Summary of the method: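 An Agilent 4 × 180k array of primer-extended double-stranded 36-bp intergenic genomic probes, with negative controls, was incubated for 1 h with GST-tagged P. falciparum DNA-binding domains expressed in E. coli. Alexa488 anti-GST antibody detected bound protein, scanned at 488 nm. Binding intensity is the highest Masliner-normalised natural-log median intensity across replicate spots of either probe orientation.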
row,Sequence,gcPBM binding intensity (ln)
1,AGGAGAAAAGATAAAGACTTCAAGAAAAAAAAATAA [TGCATGCA_negctrl_site258],9.34
2,AAAATATAAAAAGTCACACATATATATATTTATTTA [CACACA_site4872],9.64
3,TTGAATGAAAAAATTTGTACTCATATAAATAATTTA [XGTACX_site4628],9.29
4,CTTAAATTTTTAAATACACACATACACCCATACACA [CACACA_site4461],10.4
5,AAACCCTATTCAATGCAATAATTTTATAATTTTTTT [TGCATGCA_negctrl_site434],9.56
6,TTTTTTTTAAATATCACACACATATAATATATTCTA [CACACA_site3668],9.85
7,AAATTATCTTAATAGGATGTTCAAGGAGAAAGATGA [CACACA_negctrl_site1032],9.7
8,TTTATTATAATATGTTGTACAAGACGTTTCAGTATA [XGTACX_site4486],9.47
9,TAAATTAATACCTATGCACACATTTTTTTTTTTAAA [CACACA_site1238],9.71
10,TTTTCTTACACGAATTTTAAATTCAATATTAAACAT [CACACA_negctrl_site286],9.39
11,TTACCTTTTTCTAATGGTACACATAAAATATCATTT [XGTACX_site6825],9.63
12,GAGTTAATTTTTTCGTGTACTTGAAAATATTTTTTT [XGTACX_site6392],9.7
13,TTAGCAACTATTACTACACACATTTGTATATAACTT [CACACA_site6850],10
14,GTGGAAATATAACACATTTTTTTTAATAATTATATT [TGCATGCA_negctrl_site522],9.55
15,TAGCGGCGGTATCATGCACACGTATATATTGTAACA [CACACA_site8453],9.76
16,ATAGTTTTATATAAATGTACAAATGATTTCAAATAG [XGTACX_site8236],9.61
17,AACATGTATATATTATGTACATATGTTAAAATGATA [XGTACX_site6217],9.8
18,TAAAAGTAAAGACATGCATGCATTGGTATCTTTTAC [TGCATGCA_site665],9.67
19,TATAATAAAACTTTTACACACTTTAAAAAAAAAAAA [CACACA_site6392],9.59
20,GACCCACTTTTCTGCACACATAAAAAATATATAAAT [CACACA_site4483],9.87
21,TTTATATTTAAATATATATGAGAAAACACAAAATAT [TGCATGCA_negctrl_site211],9.58
22,TATATATATATATATATACACACGTATATATATACA [CACACA_site4155],10.1

row,Sequence,gcPBM binding intensity (ln)
1,ATATCTTTGCAAAGATGTACTTGTAAAAATATATGA [XGTACX_site768],9.52
2,TAATATCAATATAAAGTACACACTATAGTATGTATT [CACACA_site2280],9.79
3,TAGTTACTTCTTATATAAAATATGTATATAAAAATA [GTGCAC_negctrl_site190],9.33
4,TTGTTTGTTGTAACGTGTACAGATAAAAATAAAGGG [XGTACX_site375],9.68
5,TTCATATTATAGTGCACACAAAAATATATATATGGT [CACACA_site2855],9.87
6,TCTCTCATTTATTTTTGTACTTAATCCAGCACGTTT [XGTACX_site1369],9.67
7,ACATATTAATTATAAAGTACATATATATATATATAT [XGTACX_site4540],9.84
8,GCTTCATTTTAAACTTGTACTTATTTTTTGGTAAAT [XGTACX_site8879],9.78
9,GTTGTGTAATTCGTAACACACATAAAATATAAATAA [CACACA_site7799],9.83
10,AAAAAAAAAAAAAAAAAAAAAAAAATATATATATAT [CACACA_negctrl_site436],9.68
11,TTACTATATAATATGTGTACACAACATATAATATAT [XGTACX_site1383],9.71
12,TTTTTTTTTTGATGTTGTACTTATATACTATATAAT [XGTACX_site2778],9.65
13,CATTTTTAAAAAAATTGTACAAAACATATATGTGTA [XGTACX_site3396],9.52
14,TATTAAAAGTAAAAAACACACATGGATATATACATA [CACACA_site3959],9.88
15,TTCCTTTTGAACTCTCGTACGCGTAGGTGTTATTAT [XGTACX_site6264],9.68
16,TATGTGTGACAAAATTGTACGGTCTCTTTATTTTGT [XGTACX_site2679],9.7
17,TATACGGACTCTAAGTGTACTTAAAATAATTCAAAC [XGTACX_site3606],9.46
18,ATTTTTATACCTAAGTGTACATGATGTTTTCTTTTT [XGTACX_site973],9.86
19,TATATTGCCCTTCACACACACACATATATATATATA [CACACA_site2492],10.8
20,TAAAAATGTTGACACACACACATAAATATATTTTAT [CACACA_site7227],10.1
21,TATTATATAATAAAAATTATTATTATTTGTATAAAT [CACACA_negctrl_site195],9.34
22,TGTTTCCTATTTTGTATGCACTTTTTGTCATAATTA [GTGCAC_site9921],9.97
